Source: PMC3509445 (Biology Open, 2012)

B1: GST-TLX FL (natural protein)
chain: MSKPAGSTSRILDIPCKVCGDRSSGKHYGVYACDGCSGFFKRSIRRNRTYVCKSGNQGGCPVDKTHRNQCRACRLKKCLEVNMNKDAVQHERGPRTSTIRKQVALYFRGHKEDNGAAAHFPSTALPAPAFFTAVTQLEPHGLELAAVSATPERQTLVSLAQPTPKYPHEVNGTPMYLYEVAT[here about 150 residues without letters]PSTIEEVFFKKTIGNVPITRLLSDMYKSSDI
B2: GST-TLX ΔC[…] (domain or fragment)
chain: MSKPAGSTSRILDIPCKVCGDRSSGKHYGVYACDGCSGFFKRSIRRNRTYVCKSGNQGGCPVDKTHRNQCRACRLKKCLEVNMNKDAVQHERGPRTSTIRKQVALYFRGHKEDNGAAAHFPSTALPAPAFFTAVTQLEPHGLELAAVSATPERQTLVSLAQPTPKYPHEVNGTPMYLYEVAT[here about 150 residues without letters]

Target: ThioHis-VHL30 (full-length VHL30 thioredoxin-His fusion protein) (UniProt P40337-1)
Assay: pull-down

Row | Binder | binding result
1 | B1 | binds
2 | B2 | binds
